The record followed here is the antibiotic and cytotoxicity screens of Wong et al. (2023).

Some of the results follow.

The first assay concerns HSkMC (human skeletal muscle cells). Kind of assay: cytotoxicity call (relative viability < 0.9). Conditions: 10 µM.
On to `COc1ccc(NC(=O)N(C)C[C@@H]2Oc3cc(Br)ccc3S(=O)(=O)N([C@H](C)CO)C[C@H]2C)cc1`, for which the cytotoxicity call is “inactive”.

Regarding `CN(C)CCCN1C(=O)[C@@]2(Cc3ccccc31)c1ccccc1C(=O)N(Cc1ccccc1)[C@H]2c1ccc(CO)cc1`, the cytotoxicity call was “inactive”.

Consider `C[C@H]1CN([C@@H](C)CO)C(=O)c2cc(NS(=O)(=O)c3ccc(Cl)cc3)ccc2O[C@@H]1CN(C)S(C)(=O)=O`, for which the cytotoxicity call is “inactive”.

Consider `C[C@@H]1CCCCO[C@H](CN(C)Cc2ccc(C(F)(F)F)cc2)[C@@H](C)CN([C@@H](C)CO)C(=O)c2cc(NC(=O)Cc3ccccc3)ccc2O1`, for which the cytotoxicity call was “inactive”.

For the compound `COc1ccc(CNC(=O)C[C@@H]2CC[C@H]3[C@@H](COC[C@H](O)CN3S(=O)(=O)c3ccc(OC)cc3)O2)cc1`, the cytotoxicity call is “inactive”.

Regarding `Cc1noc(C)c1S(=O)(=O)Nc1ccc2c(c1)C(=O)N([C@@H](C)CO)C[C@H](C)[C@@H](CN(C)C(=O)Nc1ccc(F)cc1)OCCCC[C@H](C)O2`, the cytotoxicity call is “inactive”.

In the case of `C[C@H](CO)N1C[C@H](C)[C@@H](CN(C)C(=O)Nc2cccc3ccccc23)OCCCC[C@H](C)Oc2ccc(NC(=O)CCCN(C)C)cc2C1=O`, the cytotoxicity call was “inactive”.

With `C[C@H]1CCCCO[C@H](CN(C)Cc2ccccc2)[C@@H](C)CN([C@@H](C)CO)C(=O)c2cc(NC(=O)Nc3cccc4ccccc34)ccc2O1`, the cytotoxicity call is “active”.

On to `Cc1ccc2c(c1)[C@@]1(CC(=O)N(Cc3ccccc3)C1=O)C(=O)N2CCCn1c(=O)c2c(ncn2C)n(C)c1=O`, for which the cytotoxicity call was “inactive”.

The subject of another assay is HepG2. The experiment in a line: cytotoxicity call (relative viability < 0.9). Conditions: 10 µM.
On to `C[C@H]1CN([C@@H](C)CO)C(=O)c2cccc(NC(=O)c3ccncc3)c2O[C@@H]1CN(C)Cc1ccncc1`, for which the cytotoxicity call was “inactive”.

In the case of `C[C@H](CO)N1C[C@H](C)[C@H](CN(C)Cc2ccc(Oc3ccccc3)cc2)OCc2ccccc2-c2c(n(C)c3ccccc23)C1=O`, the cytotoxicity call was “inactive”.

In the case of `C[C@@H]1CCCCO[C@@H](CN(C)C(=O)Cc2ccccc2)[C@@H](C)CN([C@@H](C)CO)C(=O)c2cc(NC(=O)Nc3ccc(F)cc3)ccc2O1`, the cytotoxicity call is “inactive”.

For the compound `C[C@H](CO)N1C[C@H](C)[C@H](CN(C)Cc2ccc3c(c2)OCCN3C)OCc2ccccc2-c2c(n(C)c3ccccc23)C1=O`, the cytotoxicity call is “inactive”.

For the compound `Cc1noc(C)c1S(=O)(=O)Nc1ccc2c(c1)C(=O)N([C@H](C)CO)C[C@@H](C)[C@H](CN(C)C(=O)Nc1ccc3c(c1)OCO3)O2`, the cytotoxicity call was “inactive”.

Turning to `O=C(NO)c1cccc(C(=O)N/N=C/[C@H](O)[C@@H](O)[C@H](O)[C@H](O)CO[C@H]2O[C@H](CO)[C@H](O)[C@H](O)[C@H]2O)c1`, the cytotoxicity call is “inactive”.

On to `N[C@H](C(=O)O)[C@@H](OCc1ccccc1)C(=O)O`, for which the cytotoxicity call was “inactive”.

Regarding `CO[C@H]1CN(C)C(=O)c2ccc(NS(C)(=O)=O)cc2OC[C@H](C)N(C(=O)CN(C)C)C[C@@H]1C`, the cytotoxicity call is “inactive”.

`COc1ccccc1S(=O)(=O)N[C@H]1C=C[C@@H](CC(=O)N2CCN(C)CC2)O[C@@H]1CO`: the cytotoxicity call was “inactive”.

Turning to `C[C@H]1CN([C@@H](C)CO)C(=O)c2cc(C#Cc3ccc(F)cc3)cnc2O[C@@H]1CN(C)CC1CCOCC1`, the cytotoxicity call was “inactive”.

Turning to `C[C@H](CO)N1C[C@H](C)[C@@H](CN(C)S(=O)(=O)c2cn(C)cn2)Oc2c(NC(=O)c3cnccn3)cccc2C1=O`, the cytotoxicity call is “inactive”.

Take `CC(=O)OCC(=O)C1(O)C(OC(C)=O)CC2C3CCC4=CC(=O)C=CC4(C)C3(F)C(O)CC21C` (centres undefined): the cytotoxicity call was “inactive”.

Take `Cc1cc(C(=O)NCc2cccn2C)nn1C`: the cytotoxicity call is “inactive”.

With `CN1CCN(C(=O)C[C@@H]2CC[C@@H](NC(=O)c3ccc4c(c3)OCO4)[C@@H](CO)O2)CC1`, the cytotoxicity call is “inactive”.

For the compound `N=C(N)Nc1nc2ccccc2[nH]1`, the cytotoxicity call is “inactive”.

Turning to `C[C@@H]1CN([C@@H](C)CO)C(=O)c2cccc(NS(=O)(=O)c3ccc(Cl)cc3)c2O[C@@H]1CN(C)C(=O)Nc1cccc2ccccc12`, the cytotoxicity call is “inactive”.

In the case of `N[C@@H](CSCCCO)C(=O)O`, the cytotoxicity call is “inactive”.

Turning to `C[C@@H]1CN([C@H](C)CO)C(=O)c2cccc(NC(=O)c3ccc(-c4nccs4)cc3)c2O[C@H]1CN(C)C(=O)Nc1ccc(F)cc1`, the cytotoxicity call is “inactive”.

For `COc1ccc(CN(C)C[C@@H]2Oc3ccc(NC(=O)Nc4cccc5ccccc45)cc3CC(=O)N([C@H](C)CO)C[C@@H]2C)cc1`, the cytotoxicity call is “inactive”.

With `COc1cccc(NC(=O)N[C@H]2CC[C@@H](CC(=O)N3CCN(C)CC3)O[C@H]2CO)c1`, the cytotoxicity call is “inactive”.

Consider `Cc1noc(C)c1NC(=O)Nc1ccc2c(c1)C(=O)N([C@@H](C)CO)C[C@H](C)[C@H](CN(C)Cc1ccccc1)OCCCC[C@H](C)O2`, for which the cytotoxicity call was “inactive”.

Regarding `O=C(C[C@H]1CC[C@@H]2[C@H](COC[C@@H](O)CN2Cc2cc(F)ccc2F)O1)N[C@@H]1CCN(Cc2ccccc2)C1`, the cytotoxicity call was “active”.

`C[C@@H]1CN([C@H](C)CO)C(=O)c2cc(/C=C/c3ccccc3)cnc2O[C@@H]1CN(C)S(=O)(=O)c1cn(C)cn1`: the cytotoxicity call is “inactive”.

With `COCC(=O)N1CC(=O)N2[C@H](CO)[C@@H](c3ccc(C#Cc4cccnc4)cc3)[C@H]2C1`, the cytotoxicity call was “inactive”.

Turning to `C[C@@H]1CN([C@H](C)CO)C(=O)c2cc(NC(=O)Nc3ccc(C(F)(F)F)cc3)ccc2O[C@@H]1CN(C)Cc1ccc2c(c1)OCO2`, the cytotoxicity call is “active”.

Consider `C[C@H]1CN([C@@H](C)CO)C(=O)Cc2cc(NC(=O)Nc3ccccc3)ccc2O[C@@H]1CN(C)C(=O)Nc1ccc(C(F)(F)F)cc1`, for which the cytotoxicity call is “inactive”.

Consider `CCCNC(=O)N1C[C@@H](O)COC[C@H]2O[C@@H](CC(=O)NCc3ccncn3)CC[C@@H]21`, for which the cytotoxicity call is “inactive”.

For `CC(C)CC#Cc1cnc2c(c1)C(=O)N([C@H](C)CO)C[C@H](C)[C@@H](CN(C)C(=O)CCN1CCCCC1)O2`, the cytotoxicity call was “inactive”.

Consider `O=C(C[C@@H]1CC[C@@H]2[C@H](COC[C@H](O)CN2C(=O)c2ccc3c(c2)OCO3)O1)NCCN1CCCCC1`, for which the cytotoxicity call is “inactive”.

On to `COc1cc2c(cc1O)CCN[C@]21CS[C@@H]2c3c(OC(C)=O)c(C)c4c(c3[C@H](COC1=O)N1[C@@H]2[C@H]2c3c(cc(C)c(OC)c3O)C[C@@H]([C@@H]1O)N2C)OCO4`, for which the cytotoxicity call is “active”.

Consider `CC1(C)OC(=O)C2(C(=O)O1)[C@@H](c1ccc(-c3cccc(-c4ccc(C(=O)O)cc4)c3)cc1)CC(=O)C[C@H]2c1ccccc1`, for which the cytotoxicity call is “inactive”.

As for `COc1ccc(NC(=O)N(C)C[C@@H]2Oc3cc(Br)ccc3S(=O)(=O)N([C@H](C)CO)C[C@H]2C)cc1`, the cytotoxicity call is “inactive”.

Turning to `CN(C)CCCN1C(=O)[C@@]2(Cc3ccccc31)c1ccccc1C(=O)N(Cc1ccccc1)[C@H]2c1ccc(CO)cc1`, the cytotoxicity call was “inactive”.

In the case of `C[C@H]1CN([C@@H](C)CO)C(=O)c2cc(NS(=O)(=O)c3ccc(Cl)cc3)ccc2O[C@@H]1CN(C)S(C)(=O)=O`, the cytotoxicity call is “inactive”.

Regarding `C[C@@H]1CCCCO[C@H](CN(C)Cc2ccc(C(F)(F)F)cc2)[C@@H](C)CN([C@@H](C)CO)C(=O)c2cc(NC(=O)Cc3ccccc3)ccc2O1`, the cytotoxicity call is “inactive”.

For the compound `COc1ccc(CNC(=O)C[C@@H]2CC[C@H]3[C@@H](COC[C@H](O)CN3S(=O)(=O)c3ccc(OC)cc3)O2)cc1`, the cytotoxicity call was “inactive”.

Turning to `Cc1noc(C)c1S(=O)(=O)Nc1ccc2c(c1)C(=O)N([C@@H](C)CO)C[C@H](C)[C@@H](CN(C)C(=O)Nc1ccc(F)cc1)OCCCC[C@H](C)O2`, the cytotoxicity call was “inactive”.

For the compound `C[C@H](CO)N1C[C@H](C)[C@@H](CN(C)C(=O)Nc2cccc3ccccc23)OCCCC[C@H](C)Oc2ccc(NC(=O)CCCN(C)C)cc2C1=O`, the cytotoxicity call was “inactive”.

On to `C[C@H]1CCCCO[C@H](CN(C)Cc2ccccc2)[C@@H](C)CN([C@@H](C)CO)C(=O)c2cc(NC(=O)Nc3cccc4ccccc34)ccc2O1`, for which the cytotoxicity call is “active”.

`Cc1ccc2c(c1)[C@@]1(CC(=O)N(Cc3ccccc3)C1=O)C(=O)N2CCCn1c(=O)c2c(ncn2C)n(C)c1=O`: the cytotoxicity call is “inactive”.
